Read counts are not given, so values of variants with three or more changes are uncertain.

Results on 167 variants are retold here after the RNAGym collection of RNA variant scans (doi:10.7554/elife.90254).

Sequences and labels used below:
B1: LINE1-mini (parent)
chain: GGCAGAGCUCAACACAGCGUGGCAAAGUGGCUGUGGCUAGACUGCC

The series covers variants of B1. Description: self-cleavage, relative activity (ratio to wild type); higher = more cleavage; in vitro, sequencing; the parent is a self-cleaving ribozyme.
In the case of C8A U9G G33A G36A, the self-cleavage worked out at 0.27.

Take C8A A16U G35U A41U: the self-cleavage was 0.02.

Regarding C8G A11G A12G G27C U34C, the self-cleavage stood at 0.01.

Turning to C8A U28G U32C G36A C37A, the self-cleavage came to 0.13.

Take C8G G33A C37U C42U: the self-cleavage came out at 0.03.

As for C8A G21A A26G G29C, the self-cleavage amounted to 0.08.

On to C8U A11G U34C, for which the self-cleavage was 0.06.

Turning to C8G G22C G35C U43G, the self-cleavage came out at 0.02.

On to C8A C15U C46A, for which the self-cleavage came out at 0.13.

C8G G21U G40C C46A: the self-cleavage came out at 0.04.

With C8A U9G G40C C46A, the self-cleavage is 0.01.

Regarding C8A C13A A24C G29C C45U, the self-cleavage came out at 0.18.

In the case of C8G A25G G30C, the self-cleavage is 0.04.

With C8A G29C A39U, the self-cleavage is 0.03.

Take C8A A16U U20C: the self-cleavage amounted to 0.04.

On to C8G A25U G35C C45U, for which the self-cleavage is 0.02.

For C8A C10G C42G U43G G44C C45U, the self-cleavage was found to be 0.03.

C8G A16U A24G A25U G35A C37A C42U: the self-cleavage came out at 0.1.

As for C8G U9C A14U G33C, the self-cleavage came to 0.

As to C8G G21A C46A, the self-cleavage came out at 0.2.

In the case of C8A U28A C42G U43A, the self-cleavage was determined as 0.07.

With C8A A26U C42U, the self-cleavage was found to be 0.16.

In the case of C8A A26U C42G, the self-cleavage is 0.08.

Turning to C8A A25C C42A, the self-cleavage was determined as 0.09.

Consider C8A C15U C18U, for which the self-cleavage is 0.25.

With C8G G17A G27U G33A C37G C42A, the self-cleavage came out at 0.02.

In the case of C8G C10U C13G, the self-cleavage came out at 0.

For C8A G22A G36U C42A, the self-cleavage is 0.17.

As to C8A A24G U28C, the self-cleavage came to 0.09.

Regarding C8G U20C A24U A26U G27A, the self-cleavage stood at 0.07.

As for C8A A16U C31G, the self-cleavage was 0.03.

Regarding C8G U20A G22C A41U, the self-cleavage was 0.07.

For the variant C8G U9G U20C G29A, the self-cleavage came to 0.06.

In the case of C8G G29C U32C U38A, the self-cleavage is 0.07.

For the variant C8G A14C U38A G44A, the self-cleavage came to 0.03.

Take C8G G27C C45A: the self-cleavage turned out to be 0.

Turning to C8G G22A C37G C42A, the self-cleavage was 0.07.

On to C8G A39G C46A, for which the self-cleavage was found to be 0.03.

Regarding C8G U43A G44C, the self-cleavage came out at 0.03.

As to C8G C10G C13G C18G U28C, the self-cleavage turned out to be 0.

In the case of C8A C13G C31G, the self-cleavage was 0.18.

Consider C8A C15G C46U, for which the self-cleavage was found to be 0.18.

Turning to C8G A14C G35C, the self-cleavage was 0.02.

For the variant C8G C13A A16G A25U U32C, the self-cleavage was determined as 0.02.

Regarding C8G G29C G35C, the self-cleavage was 0.08.

Turning to C8G A12G U20A, the self-cleavage amounted to 0.05.

On to C8G A14U C23G G30A, for which the self-cleavage worked out at 0.11.

In the case of C8A C37A U38A G40U, the self-cleavage amounted to 0.06.

With C8G U20A G22C, the self-cleavage turned out to be 0.06.

With C8A C13A G40U C46U, the self-cleavage was 0.57.

As to C8A G17U A24C, the self-cleavage was determined as 0.5.

On to C8G G22C G36C, for which the self-cleavage came to 0.06.

With C8G A26C G40U G44A, the self-cleavage came to 0.01.

As to C8A U9A C10A C42U, the self-cleavage turned out to be 0.02.

Turning to C8A G17U G21U G29U, the self-cleavage worked out at 0.09.

On to C8G G22C U38G, for which the self-cleavage was found to be 0.02.

As to C8G G17A A24C, the self-cleavage worked out at 0.07.

Take C8G C23U G30A U38A: the self-cleavage worked out at 0.24.

With C8A G33A G36U U38G, the self-cleavage is 0.16.

On to C8A G29A G30C G33U, for which the self-cleavage is 0.27.

In the case of C8A C10U A11U U43G, the self-cleavage was 0.

As to C8G U20C C31G, the self-cleavage amounted to 0.01.

As to C8G C15U U20A G21U G22C A24G G33C, the self-cleavage worked out at 0.03.

Consider C8A C10A A11U C15U A26C G40A G44U, for which the self-cleavage stood at 0.01.

For the variant C8G C10G G17U C18G, the self-cleavage was determined as 0.02.

As for C8G G30U U32G G36U, the self-cleavage came out at 0.28.

With C8A C18G U38G U43A, the self-cleavage worked out at 0.07.

As to C8A G30A U43A, the self-cleavage was 1.61.

In the case of C8A G22C G40U, the self-cleavage is 0.17.

Take C8G A12U A25G G29A G30C G40C: the self-cleavage was 0.09.

Regarding C8A G35C G44A, the self-cleavage amounted to 0.19.

Turning to C8G A12C G19U G21A G36A U38C A41U, the self-cleavage is 0.01.

For the variant C8A A25C G44C, the self-cleavage was 0.3.

In the case of C8A G22U C23G G36C, the self-cleavage came out at 0.19.

In the case of C8G U20G G33A G36A C46U, the self-cleavage was found to be 0.05.

On to C8G G22C U28C C31U U38A A39C C46A, for which the self-cleavage turned out to be 0.06.

On to C8G A16G U34G, for which the self-cleavage was determined as 0.07.

For the variant C8A C13G U34C C37G, the self-cleavage was found to be 0.04.

Turning to C8G C15G C18A G35U, the self-cleavage turned out to be 0.01.

Turning to C8A A24G C45U, the self-cleavage was 0.21.

With C8G A26U C37A, the self-cleavage was 0.13.

Consider C8A G19A G21U, for which the self-cleavage amounted to 0.15.

In the case of C8A C13A G17A, the self-cleavage came to 0.14.

Turning to C8A C13A G27C, the self-cleavage amounted to 0.1.

In the case of C8G A16U G21U C46U, the self-cleavage is 0.01.

With C8A G22C C23G C31U A41U, the self-cleavage amounted to 0.16.

Turning to C8G U9A C10U U43C, the self-cleavage came to 0.04.

Turning to C8U A11G G21C C23U G35A, the self-cleavage was determined as 0.03.

As for C8A C13A G22A U32G, the self-cleavage was found to be 0.25.

Regarding C8A A24U U34C C37U, the self-cleavage stood at 0.13.

Regarding C8G G22U C37A, the self-cleavage stood at 0.07.

Regarding C8G C37U A39U G44A, the self-cleavage was 0.01.

Turning to C8G U9C A41G U43A, the self-cleavage came out at 0.02.

Turning to C8G G22U G29C A39C, the self-cleavage was 0.01.

Take C8G C31G U34G: the self-cleavage turned out to be 0.11.

On to C8G C37G C42G, for which the self-cleavage amounted to 0.02.

For C8G G21C G22A C23G G33C, the self-cleavage came to 0.02.

As to C8G A16U G22U U34C C37G, the self-cleavage was determined as 0.05.

As for C8G U28A U34C, the self-cleavage is 0.03.

For the variant C8U A11U G22A G30U G36A, the self-cleavage worked out at 0.02.

In the case of C8G A11C A26C, the self-cleavage worked out at 0.03.

As to C8A C10A C18U U32G, the self-cleavage amounted to 0.01.

Turning to C8G G17A G33A G44A, the self-cleavage was 0.05.

For the variant C8G G36C U38G A39U C42G, the self-cleavage came to 0.07.

For C8G C18A C37A C42G, the self-cleavage is 0.02.

For the variant C8A G21C A39G, the self-cleavage worked out at 0.06.

With C8A C10G C45U, the self-cleavage was 0.

On to C8G C15A A16C U28G G29U G35A G36C, for which the self-cleavage is 0.02.

With C8G G19C U34G G35U, the self-cleavage turned out to be 0.01.

C8U A11U C13G G27A G29U: the self-cleavage came to 0.02.

C8G C18G C46U: the self-cleavage came to 0.08.

C8A G22U U43C: the self-cleavage was 0.13.

With C8G A12U C37A, the self-cleavage is 0.05.

With C8G G21A U32C U38A, the self-cleavage amounted to 0.15.

Consider C8G A26U U32C, for which the self-cleavage stood at 0.04.

On to C8A U34A A41C G44C, for which the self-cleavage is 0.16.

For C8G G19C G22C A39C G40C U43C, the self-cleavage was determined as 0.

C8A C13A G22C U38A G40A U43C: the self-cleavage is 0.02.

Consider C8A C18G G35U, for which the self-cleavage was 0.02.

For C8U A11G A12C C15A, the self-cleavage stood at 0.01.

C8G A11C G17C G33U: the self-cleavage worked out at 0.02.

C8A G40U C46A: the self-cleavage turned out to be 0.03.

On to C8A U20G G27U G30U C37U C45A, for which the self-cleavage stood at 0.35.

For the variant C8A C15U U38A C45A, the self-cleavage stood at 0.34.

For the variant C8G A11C U38G, the self-cleavage turned out to be 0.03.

As to C8G C15A G36A G44U, the self-cleavage stood at 0.1.

Regarding C8A G19C U20A, the self-cleavage is 0.08.

Turning to C8A U9A C13A, the self-cleavage was 0.51.

On to C8G U9A U34C G40C, for which the self-cleavage came out at 0.21.

As to C8G C10A G21U C42U C46A, the self-cleavage is 0.01.

Regarding C8A U28G C46U, the self-cleavage was determined as 0.04.

C8G A11U C15U: the self-cleavage came to 0.01.

With C8G A11U C15A, the self-cleavage stood at 0.01.

In the case of C8A A24G A26U G27C, the self-cleavage was 0.02.

On to C8G G22C U28A A41U C46U, for which the self-cleavage came to 0.28.

Turning to C8G U9G G40A, the self-cleavage came to 0.01.

Regarding C8A C15U C31U, the self-cleavage worked out at 0.32.

For C8A C15U C31A, the self-cleavage is 0.19.

On to C8G C31U A39G C45A, for which the self-cleavage turned out to be 0.04.

On to C8G A11G A16G G22C, for which the self-cleavage was found to be 0.02.

For C8A C10G A11G C46A, the self-cleavage worked out at 0.02.

As to C8G A26C G33U, the self-cleavage turned out to be 0.02.

Take C8G C18U A24U A39G: the self-cleavage amounted to 0.05.

In the case of C8G C15U C37G, the self-cleavage turned out to be 0.1.

Take C8A G22U C42A: the self-cleavage came to 0.2.

For the variant C8A U38G C46A, the self-cleavage worked out at 0.07.

As for C8G G22A A24G G29C G40U, the self-cleavage turned out to be 0.01.

C8G A12C A26C: the self-cleavage is 0.

C8U A11C C23G C31A C37U: the self-cleavage turned out to be 0.

With C8A A26U G30A G33C, the self-cleavage turned out to be 0.11.

For the variant C8G A14G U28C A41C, the self-cleavage stood at 0.02.

For C8G G21U U34A, the self-cleavage was 0.

On to C8G C15U C23U, for which the self-cleavage is 0.36.

On to C8G G27U G29U G33C, for which the self-cleavage came out at 0.01.

On to C8A C13U G27U U43C, for which the self-cleavage turned out to be 0.22.

C8A U28C A39C: the self-cleavage came to 0.33.

On to C8G C15A C42A, for which the self-cleavage was found to be 0.02.

In the case of C8G U43A C45G C46A, the self-cleavage was 0.

Consider C8A C13A C23U G27C G44U, for which the self-cleavage amounted to 0.34.

For the variant C8A U20C C31A, the self-cleavage is 0.04.

For C8G C10G G30U, the self-cleavage is 0.04.

On to C8G G22A A24G, for which the self-cleavage came to 0.03.

Consider C8G C10G C13A G22A, for which the self-cleavage is 0.03.

Regarding C8A G17U G27C C31U, the self-cleavage came out at 0.33.

On to C8G G17C G44U, for which the self-cleavage was 0.04.

C8A C18G A26C G36C C37A G40U: the self-cleavage is 0.19.

In the case of C8A U9C G33A, the self-cleavage stood at 0.03.
